Hit rate of the full screen: of about 150,000 compounds, about 540 (0.36%) showed an effect of 50% or more. The list shows a part of the results.
The compounds below were run on Plasmodium falciparum (assay: Primary screen in NF54 nanoGlo assay, in single point, at 2uM, 72h; a lower Z score goes with more inhibition). Details: timepoint 72 hour.
Type: functional, Erythrocyte

Structure (SMILES) | % Inhibition | Z score
CNC(=O)c1cccc(NCC2(CN3CCN(C)CC3)CC2)n1 | 5% | -0.86
Cc1ccc(NC(=O)C[C@H](n2ccnc2)C(F)(F)F)c(O)n1 | -10% | 1.36
CCc1nc(C)c(C(=O)NCc2noc(Cc3cccs3)n2)s1 | -2% | 0.27
O=C(CNC(=O)Cc1ccccc1)NCCC(=O)Nc1ccccn1 | -13% | 2.51
CC(Nc1ccc2c(c1)OC1(CCCCC1)O2)C(=O)N(C)C1CCS(=O)(=O)C1 (centres undefined) | -34% | 3.99
O=C(NCCc1ccccc1)N1CC[C@@](F)(C(=O)NCc2ccccc2)C1 | -7% | 0.9
Cc1ccc(NC(=O)C2CCN(S(=O)(=O)c3ccc4c(c3)sc(=O)n4C(C)C)CC2)c(C)c1 | 5% | -0.88
Cc1cc(CNC(=O)c2ccccc2N2CCCC2)[nH]n1 | -9% | 1.13
Cn1c(=O)n([C@H]2CCN(C(=O)c3ccsc3)C2)c2ncncc21 | -16% | 1.64
CN(C)C(=O)N1CCC(c2nnc3n2CCN(C(=O)c2ccc4ncccc4c2)C3)CC1 | -7% | 1.12
Cc1ccc(N2CC[C@@H](C(=O)N3CCN(Cc4ccccc4)CC3)C2=O)c(Cl)c1 | -14% | 1.26
NC(=O)[C@H](Cc1ccccc1)NCC(=O)NC1CCCCCCC1 | -14% | 1.97
COCC1(C(=O)N[C@@H](Cc2ccccc2)c2ccccc2)CCC1 | 6% | -1.12
Cc1cccc(C(=O)NC[C@H](C)OC(=O)C2CCN(C(=O)c3cccc(C)n3)CC2)n1 | -5% | 0.5
CN(CCO)C(=O)Nc1ccc(Cl)c(Br)c1 | -10% | 1.35
COc1ncccc1C(=O)Nc1ccc(N2CCNC(=O)C2)nc1 | -9% | 1.33
Cc1ccc(-c2nnc(C(C)N3CC4OCCN(C)C4C3)o2)cc1 (centres undefined) | -6% | 0.46
CN(Cc1ccc(Br)o1)C(=O)CC(C)(C)C | -5% | 0.69
Cc1nnc(CNC(=O)c2cccnc2O[C@H]2CCOC2)o1 | -1% | 0.27
Cc1cnc(C2CC2)n1CCNC(=O)c1cn(C)cn1 | 13% | -1.67
CCn1c([C@H]2CCN(C(=O)c3ccc(OC)nc3)C2)nc2cccnc21 | -7% | 0.8

Structure (SMILES) | % Inhibition | Z score
COc1ccc(S(=O)(=O)N2CCC[C@H]2c2cc(C(C)C)no2)cc1 | -5% | 0.74
CC(C)[C@H](NC(=O)OC(C)(C)C)c1nnc(S(=O)(=O)Cc2c(Cl)cccc2Cl)o1 | 0% | 0.04
COc1ccc(C(=O)NC2CCN(c3nc4c(s3)c(C)nn4-c3ccc(OC)cc3)CC2)cc1 | -6% | 0.81
Cc1ncc(CO)c(CN2C[C@H]3CC[C@@H](C2)N(CC2CCC2)C3)c1O | -1% | 0.07
Cc1nccc(N(CCC(F)(F)F)C[C@H](O)CO)n1 | -13% | 1.45
COc1ccc2[nH]cc(C(=O)c3sc(Nc4ccccc4C)nc3N)c2c1 | -9% | 1.39
CC1(C)NC(=O)CC[C@@H]1NCc1ccc(C2CC2)cc1F | -1% | 0.17
CCCn1ncnc1Cn1cnc(C)c(C)c1=O | -6% | 0.65
CCN(CC)S(=O)(=O)NC(=O)Cc1c(F)cccc1F | -10% | 1.96
CCNc1nc(C)c(C(=O)N2CCO[C@H](C3CC3)C2)s1 | -17% | 3.2
CCc1ccc(NC(=O)N2C[C@H](C)C(=O)[C@@H](C)C2)cc1F | -14% | 2.27
Cc1ccccc1NS(=O)(=O)c1cc(C(=O)N2CCCCCC2)cs1 | 1% | -0.16
C[C@H]1C(=O)NCCCN1Cc1ccn(-c2ccccc2)n1 | -3% | 0.48
CCCN(C(=O)c1cnn(C)c1N)C1CC(OCC)C12CCCC2 (centres undefined) | -8% | 0.84
Cc1ccc(-c2cc(C(=O)N3CCC(C)CC3)n3nc(C(C)(C)C)cc3n2)cc1 | -16% | 2.12
CCCN(Cc1c(C)nn(-c2cccc(F)c2)c1N1CCN(C)CC1)S(=O)(=O)c1ccc(Br)cc1 | -16% | 1.51
Cn1ccnc1C(O)C1CCCN(C(=O)OC(C)(C)C)C1 (centres undefined) | -4% | 0.63
CCn1ncc(C(=O)N[C@@H](C)c2cccc(-n3cccn3)c2)n1 | 7% | -1.01
CC1(C)C[C@@H]1c1nnc(COc2ccc(C#N)cc2)o1 | -15% | 2.38
Cn1nc(C(F)(F)F)cc1C(=O)N1CCC[C@](C)(c2ccccc2)C1 | -1% | 0.16
COCc1csc(C(=O)Nc2cncc(C(C)C)c2)c1 | -7% | 1.12

Source: ChEMBL document CHEMBL4888484, “Replenishing the malaria drug discovery pipeline: Screening and hit evaluation of the MMV Hit Generation Library 1 (HGL1) against asexual blood stage Plasmodium falciparum ,using a nano luciferase reporter read-out” (2022)
